Assay results reported in article PMC7515921, “MFSD7C switches mitochondrial ATP synthesis to thermogenesis in response to heme” (Nature Communications, 2020).
Results are given in words; binding and its absence hold for the method and conditions named. Binding seen in cells or lysates may run through a third protein. Some entries that bind do so weakly or less than the wild type. For some assays here: Sequences can lack the tags named with a protein. Values belong to the molecule of their own block, whether it stands above or below them.

Protein sequences, listed by entry. Tags and fused reporters are not part of them.
UniProt Q9DCX2: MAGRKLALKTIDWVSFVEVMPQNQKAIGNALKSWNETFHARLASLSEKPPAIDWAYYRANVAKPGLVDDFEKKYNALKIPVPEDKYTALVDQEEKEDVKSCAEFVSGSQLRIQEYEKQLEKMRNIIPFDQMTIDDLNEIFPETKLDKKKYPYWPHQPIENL
UniProt O55143: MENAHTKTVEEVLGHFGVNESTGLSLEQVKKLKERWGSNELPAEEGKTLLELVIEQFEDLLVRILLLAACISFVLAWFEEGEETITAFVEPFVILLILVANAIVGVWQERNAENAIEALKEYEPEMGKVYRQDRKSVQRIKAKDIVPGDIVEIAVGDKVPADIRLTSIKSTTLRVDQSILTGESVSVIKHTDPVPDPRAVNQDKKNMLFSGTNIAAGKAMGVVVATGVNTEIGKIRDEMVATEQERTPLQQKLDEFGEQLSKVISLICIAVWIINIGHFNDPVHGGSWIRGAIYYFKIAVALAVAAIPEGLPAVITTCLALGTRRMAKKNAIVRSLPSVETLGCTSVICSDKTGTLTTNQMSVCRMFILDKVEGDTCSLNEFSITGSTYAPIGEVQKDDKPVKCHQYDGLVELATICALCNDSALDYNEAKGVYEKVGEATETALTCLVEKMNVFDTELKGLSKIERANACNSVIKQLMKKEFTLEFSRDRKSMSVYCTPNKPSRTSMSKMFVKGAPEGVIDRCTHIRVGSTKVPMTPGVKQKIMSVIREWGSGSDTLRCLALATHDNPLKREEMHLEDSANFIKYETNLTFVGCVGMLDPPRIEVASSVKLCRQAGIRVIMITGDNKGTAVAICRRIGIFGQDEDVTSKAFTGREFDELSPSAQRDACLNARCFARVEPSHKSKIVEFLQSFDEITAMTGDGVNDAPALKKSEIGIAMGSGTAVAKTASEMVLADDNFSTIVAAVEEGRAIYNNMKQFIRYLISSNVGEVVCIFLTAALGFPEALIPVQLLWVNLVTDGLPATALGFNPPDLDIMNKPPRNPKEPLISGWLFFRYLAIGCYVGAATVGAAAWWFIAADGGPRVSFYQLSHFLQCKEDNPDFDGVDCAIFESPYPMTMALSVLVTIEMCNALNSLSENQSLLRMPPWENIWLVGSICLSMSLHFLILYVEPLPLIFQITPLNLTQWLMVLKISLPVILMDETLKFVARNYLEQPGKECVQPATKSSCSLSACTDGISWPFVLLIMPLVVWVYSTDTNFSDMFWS

Legend:
[1] = biological target: T1, HA-tagged murine MFSD7C (mouse) (UniProt Q91X85); assay: co-IP; as a2, result for cells treated with 10 μM or 40 μM heme for 1 h before lysis
T1 sequence: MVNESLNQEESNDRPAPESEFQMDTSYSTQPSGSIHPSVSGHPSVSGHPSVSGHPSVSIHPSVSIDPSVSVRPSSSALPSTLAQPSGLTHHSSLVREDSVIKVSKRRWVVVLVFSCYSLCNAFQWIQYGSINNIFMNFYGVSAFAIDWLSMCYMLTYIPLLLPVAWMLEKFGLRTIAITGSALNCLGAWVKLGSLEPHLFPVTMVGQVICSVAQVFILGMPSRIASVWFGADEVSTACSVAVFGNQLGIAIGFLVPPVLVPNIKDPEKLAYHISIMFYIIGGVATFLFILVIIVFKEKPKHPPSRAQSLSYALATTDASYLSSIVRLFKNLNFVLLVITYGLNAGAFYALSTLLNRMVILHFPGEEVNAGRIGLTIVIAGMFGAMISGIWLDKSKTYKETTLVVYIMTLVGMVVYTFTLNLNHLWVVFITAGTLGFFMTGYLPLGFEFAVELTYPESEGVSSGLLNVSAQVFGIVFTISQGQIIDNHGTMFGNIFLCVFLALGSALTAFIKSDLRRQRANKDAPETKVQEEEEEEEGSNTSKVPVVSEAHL

[2] = biological target: T2, HA-tagged MFSD7C^ΔN (mouse) (UniProt Q91X85); assay: co-IP; HA-tagged MFSD7C (or MFSD7C^ΔN) and FLAG-tagged partner co-transfected in 293FT cells; lysis in 20 mM Tris-HCl pH 7.4, 150 mM NaCl, 0.1% NP-40, 10% glycerol; sequential anti-FLAG and anti-HA precipitation with peptide elution, immunoblot with anti-HA and anti-FLAG; cells untreated (vehicle) or treated with 10 or 40 μM heme for 1 h before lysis
T2 sequence: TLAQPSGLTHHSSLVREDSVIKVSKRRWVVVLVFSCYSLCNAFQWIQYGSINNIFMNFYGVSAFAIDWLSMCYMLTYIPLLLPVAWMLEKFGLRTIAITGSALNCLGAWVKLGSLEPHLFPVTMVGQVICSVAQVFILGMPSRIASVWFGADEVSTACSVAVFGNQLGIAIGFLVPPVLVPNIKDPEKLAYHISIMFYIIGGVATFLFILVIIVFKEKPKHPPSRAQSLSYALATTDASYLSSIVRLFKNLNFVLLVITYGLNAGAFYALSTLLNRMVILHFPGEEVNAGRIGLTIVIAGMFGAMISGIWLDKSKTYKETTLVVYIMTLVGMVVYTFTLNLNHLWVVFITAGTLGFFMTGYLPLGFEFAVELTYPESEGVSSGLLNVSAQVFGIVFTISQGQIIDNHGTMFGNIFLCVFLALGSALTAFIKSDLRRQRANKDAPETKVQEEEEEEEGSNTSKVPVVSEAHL

[3] = biological target: T1, HA-tagged murine MFSD7C (mouse); assay: as above
[4] = biological target: ATP5h (endogenous) (mouse (endogenous in MH-S and in bone marrow-derived macrophages)) (UniProt Q9DCX2); assay: co-IP; endogenous proteins in lysates of bone marrow-derived macrophages from Mfsd7c^fl/fl mice (control: Mfsd7c^-/-); anti-ATP5h, anti-SERCA2b and anti-HMOX1 immunoprecipitates blotted for MFSD7C; cells without or with heme treatment (with heme the co-IP with SERCA2b diminished, with HMOX1 enhanced)
[5] = biological target: Atp2a2 (SERCA2b) (endogenous) (mouse (endogenous in MH-S and in bone marrow-derived macrophages)) (UniProt O55143); assay: as above
[6] = biological target: T3, HMOX1 (endogenous) (mouse (endogenous in MH-S and in bone marrow-derived macrophages)) (UniProt P14901); assay: as above
T3 sequence: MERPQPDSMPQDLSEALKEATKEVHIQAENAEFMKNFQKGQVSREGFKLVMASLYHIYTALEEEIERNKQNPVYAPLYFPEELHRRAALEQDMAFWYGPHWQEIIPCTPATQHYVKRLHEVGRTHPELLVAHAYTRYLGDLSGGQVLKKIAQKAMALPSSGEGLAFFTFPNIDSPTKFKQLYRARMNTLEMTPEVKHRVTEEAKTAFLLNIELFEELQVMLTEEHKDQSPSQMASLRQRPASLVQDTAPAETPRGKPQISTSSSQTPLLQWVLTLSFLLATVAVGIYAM

B1: FLAG-tagged murine HMOX1 (protein, UniProt P14901 1-289)
chain: T3 sequence
binding [2]: no binding | binding [3]: binds

B2: endogenous MFSD7C (protein, UniProt Q91X85 1-551)
chain: T1 sequence
binding [4]: binds | binding [5]: binds | binding [6]: binds

Results, then the molecule that gave them:

binding [1]: binds weakly | binding [2]: binds | binding [3]: binds
Molecule: FLAG-tagged murine ATP5h (from UniProt Q9DCX2 1-161)

binding [1]: binds weakly | binding [2]: binds | binding [3]: binds
B3: FLAG-tagged murine ATP5c1 (protein, UniProt Q91VR2 26-298)
chain: ATLKDITRRLKSIKNIQKITKSMKMVAAAKYARAERELKPARVYGTGSLALYEKADIKAPEDKKKHLIIGVSSDRGLCGAIHSSVAKQMKNEVAALTAAGKEVMIVGVGEKIKGILYRTHSDQFLVSFKDVGRKPPTFGDASVIALELLNSGYEFDEGSIIFNQFKSVISYKTEEKPIFSLNTIATAETMSIYDDIDADVLQNYQEYNLANLIYYSLKESTTSEQSARMTAMDNASKNASDMIDKLTLTFNRTRQAVITKELIEIISGAAALD
